Publication PMC10497406
No constants are given. Whether binding was seen depends on the method and setting. For some of these results: Binding seen in cells or lysates may run through a third protein. Some binding calls cover weakened binding; strength is not graded here. For some of these results: Where a sequence is shown, tags or fusion partners need not be part of it. Each block holds one substance with its values, some of them ahead of it.

By UniProt entry, the sequences of proteins in these tests, tags left out.
UniProt Q6KC79: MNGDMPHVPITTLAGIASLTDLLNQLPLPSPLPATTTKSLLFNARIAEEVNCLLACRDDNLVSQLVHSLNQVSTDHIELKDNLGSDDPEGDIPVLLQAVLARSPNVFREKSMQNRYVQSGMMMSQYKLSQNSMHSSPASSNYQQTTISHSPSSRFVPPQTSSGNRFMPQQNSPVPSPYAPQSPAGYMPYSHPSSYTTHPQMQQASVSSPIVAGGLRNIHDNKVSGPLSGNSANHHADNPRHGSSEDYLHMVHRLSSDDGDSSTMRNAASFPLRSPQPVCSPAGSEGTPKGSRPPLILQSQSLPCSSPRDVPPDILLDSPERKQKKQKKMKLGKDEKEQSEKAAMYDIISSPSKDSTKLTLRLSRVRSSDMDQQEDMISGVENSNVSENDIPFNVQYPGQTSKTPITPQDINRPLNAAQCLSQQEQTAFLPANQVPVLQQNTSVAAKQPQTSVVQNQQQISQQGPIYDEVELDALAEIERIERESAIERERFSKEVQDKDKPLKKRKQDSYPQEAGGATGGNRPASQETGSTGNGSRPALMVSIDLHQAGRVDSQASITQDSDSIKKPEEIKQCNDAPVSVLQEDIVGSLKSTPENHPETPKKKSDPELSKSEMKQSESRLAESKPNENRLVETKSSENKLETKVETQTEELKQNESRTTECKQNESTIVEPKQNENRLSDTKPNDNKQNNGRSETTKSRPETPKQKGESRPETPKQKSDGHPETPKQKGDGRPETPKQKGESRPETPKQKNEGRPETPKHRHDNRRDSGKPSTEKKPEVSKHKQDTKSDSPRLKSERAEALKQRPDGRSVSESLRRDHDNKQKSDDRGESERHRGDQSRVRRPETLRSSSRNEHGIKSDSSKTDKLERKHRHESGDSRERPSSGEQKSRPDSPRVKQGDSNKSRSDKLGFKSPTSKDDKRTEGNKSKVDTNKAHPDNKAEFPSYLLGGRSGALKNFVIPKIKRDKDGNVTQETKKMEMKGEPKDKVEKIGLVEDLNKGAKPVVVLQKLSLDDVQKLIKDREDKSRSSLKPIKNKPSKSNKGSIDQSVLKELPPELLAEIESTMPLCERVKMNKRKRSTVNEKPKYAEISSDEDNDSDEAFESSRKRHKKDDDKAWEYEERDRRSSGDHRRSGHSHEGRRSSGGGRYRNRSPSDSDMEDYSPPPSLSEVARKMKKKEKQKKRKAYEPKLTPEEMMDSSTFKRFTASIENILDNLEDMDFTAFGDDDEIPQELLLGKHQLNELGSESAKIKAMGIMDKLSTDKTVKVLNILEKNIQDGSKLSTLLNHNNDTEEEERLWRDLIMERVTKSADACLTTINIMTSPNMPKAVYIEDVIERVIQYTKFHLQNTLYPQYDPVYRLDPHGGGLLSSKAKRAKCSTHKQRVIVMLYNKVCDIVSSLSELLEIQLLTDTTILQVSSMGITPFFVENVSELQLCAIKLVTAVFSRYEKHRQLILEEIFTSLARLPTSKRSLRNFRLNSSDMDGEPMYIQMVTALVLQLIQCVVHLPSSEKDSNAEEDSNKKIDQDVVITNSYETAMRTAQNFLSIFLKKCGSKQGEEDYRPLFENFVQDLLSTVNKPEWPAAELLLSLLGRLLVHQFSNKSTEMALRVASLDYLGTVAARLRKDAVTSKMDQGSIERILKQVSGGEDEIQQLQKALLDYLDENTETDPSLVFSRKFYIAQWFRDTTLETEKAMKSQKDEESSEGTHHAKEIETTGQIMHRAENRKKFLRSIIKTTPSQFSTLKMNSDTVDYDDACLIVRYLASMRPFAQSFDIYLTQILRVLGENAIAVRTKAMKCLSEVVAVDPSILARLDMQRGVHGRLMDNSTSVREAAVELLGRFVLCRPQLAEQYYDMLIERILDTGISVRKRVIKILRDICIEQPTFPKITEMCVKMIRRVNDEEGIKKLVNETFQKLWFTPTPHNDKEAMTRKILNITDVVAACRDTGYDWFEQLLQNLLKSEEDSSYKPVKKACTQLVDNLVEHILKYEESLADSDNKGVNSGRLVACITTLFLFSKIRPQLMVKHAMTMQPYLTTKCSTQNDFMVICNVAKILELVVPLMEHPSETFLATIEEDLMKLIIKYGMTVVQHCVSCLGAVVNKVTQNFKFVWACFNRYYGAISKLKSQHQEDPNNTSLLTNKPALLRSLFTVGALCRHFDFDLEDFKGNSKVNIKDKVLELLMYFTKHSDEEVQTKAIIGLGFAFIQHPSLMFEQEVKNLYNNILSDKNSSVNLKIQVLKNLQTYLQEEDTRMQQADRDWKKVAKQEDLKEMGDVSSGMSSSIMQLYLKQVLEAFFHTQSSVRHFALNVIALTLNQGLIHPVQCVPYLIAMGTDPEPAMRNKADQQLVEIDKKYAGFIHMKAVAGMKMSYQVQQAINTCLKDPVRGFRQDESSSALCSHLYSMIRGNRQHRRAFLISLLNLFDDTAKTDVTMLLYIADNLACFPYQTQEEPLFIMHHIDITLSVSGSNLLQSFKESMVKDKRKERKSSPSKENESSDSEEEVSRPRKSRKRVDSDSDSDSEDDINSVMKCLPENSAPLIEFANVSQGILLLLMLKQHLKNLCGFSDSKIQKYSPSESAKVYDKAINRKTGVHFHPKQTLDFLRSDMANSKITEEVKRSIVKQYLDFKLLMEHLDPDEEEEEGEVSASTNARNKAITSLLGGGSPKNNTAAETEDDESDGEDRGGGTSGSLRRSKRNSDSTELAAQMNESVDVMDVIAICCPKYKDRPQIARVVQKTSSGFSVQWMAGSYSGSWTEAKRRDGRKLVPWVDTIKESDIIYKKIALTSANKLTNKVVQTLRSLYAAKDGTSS
UniProt P15873: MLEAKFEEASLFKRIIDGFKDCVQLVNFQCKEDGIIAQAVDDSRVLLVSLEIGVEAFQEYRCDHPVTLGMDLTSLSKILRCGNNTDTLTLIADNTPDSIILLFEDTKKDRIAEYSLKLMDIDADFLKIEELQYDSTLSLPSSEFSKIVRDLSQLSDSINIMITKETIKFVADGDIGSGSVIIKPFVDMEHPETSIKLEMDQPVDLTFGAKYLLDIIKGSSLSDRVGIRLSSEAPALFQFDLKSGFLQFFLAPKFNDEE
UniProt P12004: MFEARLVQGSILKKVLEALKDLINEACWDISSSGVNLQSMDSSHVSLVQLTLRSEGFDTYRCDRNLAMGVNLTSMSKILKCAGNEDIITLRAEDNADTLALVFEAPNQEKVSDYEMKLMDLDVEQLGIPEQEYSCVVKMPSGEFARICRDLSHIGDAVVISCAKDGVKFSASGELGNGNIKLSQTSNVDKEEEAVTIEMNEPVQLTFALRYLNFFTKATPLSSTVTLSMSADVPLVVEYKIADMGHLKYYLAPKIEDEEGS

What was measured:
[1] = biological target: T1, GST–Scc2pip (Scc2 residues 1476–1493 with PIP mutated, fused to GST) (S. cerevisiae) (UniProt Q04002); assay: pull-down; GST–Scc2 fusions on glutathione Sepharose 4B beads, purified His-tagged yeast Pol30 (2.5 μg) in 0.7 ml binding buffer (1× PBS, 150 mM NaCl, 1% Triton X-100), overnight at 4 °C; western blot with anti-Pol30; both purified
T1 sequence: YSSAGKALTAARKHVKDT

[2] = biological target: T2, GST–Scc2^C1100-168aa (Scc2 from residue 394 with the last 168 amino acids truncated, fused to GST) (S. cerevisiae) (UniProt Q04002); assay: as above
T2 sequence: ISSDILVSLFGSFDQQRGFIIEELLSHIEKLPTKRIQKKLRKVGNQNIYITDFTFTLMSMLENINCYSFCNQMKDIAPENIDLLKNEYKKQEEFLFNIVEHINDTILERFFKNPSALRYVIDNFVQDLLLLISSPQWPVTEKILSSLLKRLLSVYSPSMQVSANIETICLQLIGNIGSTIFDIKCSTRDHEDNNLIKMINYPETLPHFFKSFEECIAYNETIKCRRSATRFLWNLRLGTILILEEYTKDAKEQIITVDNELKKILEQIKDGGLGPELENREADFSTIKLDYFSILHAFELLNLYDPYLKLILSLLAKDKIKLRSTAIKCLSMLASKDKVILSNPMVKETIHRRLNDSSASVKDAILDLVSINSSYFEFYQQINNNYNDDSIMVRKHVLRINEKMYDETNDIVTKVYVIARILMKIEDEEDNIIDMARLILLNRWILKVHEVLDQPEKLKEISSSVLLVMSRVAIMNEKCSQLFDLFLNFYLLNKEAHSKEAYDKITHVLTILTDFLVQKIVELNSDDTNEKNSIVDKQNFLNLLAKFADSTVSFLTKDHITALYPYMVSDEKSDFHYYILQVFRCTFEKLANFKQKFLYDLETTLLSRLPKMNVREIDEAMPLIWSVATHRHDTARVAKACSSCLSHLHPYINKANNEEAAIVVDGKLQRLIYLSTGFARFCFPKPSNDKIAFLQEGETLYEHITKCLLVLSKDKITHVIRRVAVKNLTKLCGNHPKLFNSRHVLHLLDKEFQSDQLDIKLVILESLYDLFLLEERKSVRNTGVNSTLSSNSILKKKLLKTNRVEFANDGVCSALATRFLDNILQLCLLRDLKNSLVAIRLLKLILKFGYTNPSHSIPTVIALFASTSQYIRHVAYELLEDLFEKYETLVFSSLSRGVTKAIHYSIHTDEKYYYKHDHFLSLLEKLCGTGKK

[3] = biological target: T3, N-terminally 7His8Flag (HF)-tagged Scc2^E822K (S. cerevisiae) (UniProt Q04002); assay: cross-linking; yeast cultures cross-linked with 1% formaldehyde for 30 min; Ni-NTA pulldown of HF-tagged Scc2^E822K under denaturing conditions; blot with anti-Pol30
T3 sequence: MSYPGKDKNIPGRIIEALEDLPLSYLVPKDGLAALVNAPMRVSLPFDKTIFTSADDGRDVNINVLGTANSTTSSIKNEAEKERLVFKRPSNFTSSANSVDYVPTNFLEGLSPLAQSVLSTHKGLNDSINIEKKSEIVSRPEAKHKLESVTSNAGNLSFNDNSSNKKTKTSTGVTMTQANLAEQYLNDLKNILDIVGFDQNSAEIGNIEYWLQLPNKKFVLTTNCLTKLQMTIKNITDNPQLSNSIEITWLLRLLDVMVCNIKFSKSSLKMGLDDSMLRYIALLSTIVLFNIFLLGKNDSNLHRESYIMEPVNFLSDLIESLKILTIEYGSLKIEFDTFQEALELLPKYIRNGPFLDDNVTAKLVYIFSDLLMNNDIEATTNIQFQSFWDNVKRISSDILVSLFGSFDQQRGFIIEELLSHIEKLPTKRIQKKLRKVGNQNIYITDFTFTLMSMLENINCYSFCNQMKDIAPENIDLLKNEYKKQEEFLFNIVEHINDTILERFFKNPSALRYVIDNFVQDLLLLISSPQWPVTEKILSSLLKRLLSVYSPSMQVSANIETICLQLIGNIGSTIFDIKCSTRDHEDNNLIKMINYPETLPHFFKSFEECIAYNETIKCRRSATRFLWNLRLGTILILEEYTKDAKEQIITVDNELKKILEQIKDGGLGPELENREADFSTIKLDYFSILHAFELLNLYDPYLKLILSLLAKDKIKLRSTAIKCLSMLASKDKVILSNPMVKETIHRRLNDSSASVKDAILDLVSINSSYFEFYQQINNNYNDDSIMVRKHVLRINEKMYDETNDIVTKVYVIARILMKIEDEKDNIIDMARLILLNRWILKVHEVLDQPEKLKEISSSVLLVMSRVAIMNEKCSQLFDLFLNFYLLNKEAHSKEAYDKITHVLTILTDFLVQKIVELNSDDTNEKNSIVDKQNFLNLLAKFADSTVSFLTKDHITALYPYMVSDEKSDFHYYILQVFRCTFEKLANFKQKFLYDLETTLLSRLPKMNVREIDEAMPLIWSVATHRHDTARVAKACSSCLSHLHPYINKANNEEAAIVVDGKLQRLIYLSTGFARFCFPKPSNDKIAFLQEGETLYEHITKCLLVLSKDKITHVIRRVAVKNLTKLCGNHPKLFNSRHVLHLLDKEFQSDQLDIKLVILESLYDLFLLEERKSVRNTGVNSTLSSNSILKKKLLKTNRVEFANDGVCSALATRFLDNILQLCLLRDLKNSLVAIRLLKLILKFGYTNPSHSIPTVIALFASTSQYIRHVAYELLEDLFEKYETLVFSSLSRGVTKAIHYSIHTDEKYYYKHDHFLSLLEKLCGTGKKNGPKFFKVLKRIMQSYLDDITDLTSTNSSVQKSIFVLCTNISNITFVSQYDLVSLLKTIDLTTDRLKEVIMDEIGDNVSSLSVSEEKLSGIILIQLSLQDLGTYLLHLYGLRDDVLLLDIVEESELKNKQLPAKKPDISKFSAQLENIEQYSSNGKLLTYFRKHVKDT

[4] = biological target: human NIPBL, endogenous (human (endogenous in TK6)) (UniProt Q6KC79); assay: co-IP; IP of endogenous NIPBL (anti-NIPBL A301-779A, Dynabeads Protein A) from TK6 lysates with benzonase; lysis 150 mM NaCl, washes 200 mM NaCl, 0.5% NP-40; also after nocodazole synchronisation and release of TP53 knockout TK6 cells (asynchronous, G1, S, G2/M)

- binding [2]: no binding
Substance: N-terminally His-tagged yeast Pol30 (PCNA) (from UniProt P15873 1-258)
- binding [1]: no binding (tested: 2.5 μg His-tagged Pol30 in 0.7 ml)

- binding [3]: binds
Substance: Pol30 (yeast PCNA), endogenous (from UniProt P15873 1-258)

- binding [4]: binds
Substance: human PCNA, endogenous (from UniProt P12004 1-261)
